# Measurements taken from the supplement of paper PMC10369915.
# Some of the results follow. No stated cut-off is given here; in the data, active = 3.2 or more and inactive = the rest. The signal is at background level for most entries.
# Target: SHP2 C-SH2 domain E139D
# Test: enrichment score (SH2-bound / input frequency) (ratio); bacterial display of known human phosphotyrosine sites (pTyr-Var adds point mutants) read by sequencing; higher = stronger binding; tyrosines were phosphorylated by kinases first
# Conditions: peptide library: Human pTyr
# 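Further: displayed peptides selected on beads carrying the immobilized SH2 domain, with library peptides lacking any tyrosine serving as negative controls.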
row,Binder,enrichment score
1,DVSLDRGYTSDSEVY [GBF1_HUMAN_1316],inactive: 0.575
2,STNSEDNYVPMNPGS [GAB2_HUMAN_452],inactive: 0.581
3,YDASSIQYRKAGLPR [GBRB2_HUMAN_441],inactive: 0.75

# Target: SHP2 C-SH2 domain wild-type
# Test: as above
# Conditions: peptide library: Human pTyr
row,Binder,enrichment score
1,DVSLDRGYTSDSEVY [GBF1_HUMAN_1316],inactive: 0.48
2,STNSEDNYVPMNPGS [GAB2_HUMAN_452],inactive: 0.46
3,YDASSIQYRKAGLPR [GBRB2_HUMAN_441],inactive: 0.666

# Target: SHP2 N-SH2 domain L43F
# Test: as above
# Conditions: peptide library: Human pTyr
row,Binder,enrichment score
1,DVSLDRGYTSDSEVY [GBF1_HUMAN_1316],inactive: 0.644
2,STNSEDNYVPMNPGS [GAB2_HUMAN_452],inactive: 0.552
3,YDASSIQYRKAGLPR [GBRB2_HUMAN_441],inactive: 0.729

# Target: SHP2 N-SH2 domain T42A
# Test: as above
# Conditions: peptide library: Human pTyr
row,Binder,enrichment score
1,DVSLDRGYTSDSEVY [GBF1_HUMAN_1316],inactive: 0.602
2,STNSEDNYVPMNPGS [GAB2_HUMAN_452],inactive: 0.447
3,YDASSIQYRKAGLPR [GBRB2_HUMAN_441],inactive: 0.825

# Target: SHP2 N-SH2 domain T52S
# Test: as above
# Conditions: peptide library: Human pTyr
row,Binder,enrichment score
1,DVSLDRGYTSDSEVY [GBF1_HUMAN_1316],inactive: 0.619
2,STNSEDNYVPMNPGS [GAB2_HUMAN_452],inactive: 0.565
3,YDASSIQYRKAGLPR [GBRB2_HUMAN_441],inactive: 0.819

# Target: SHP2 N-SH2 domain wild-type
# Test: as above
# Conditions: peptide library: Human pTyr
row,Binder,enrichment score
1,DVSLDRGYTSDSEVY [GBF1_HUMAN_1316],inactive: 0.645
2,STNSEDNYVPMNPGS [GAB2_HUMAN_452],inactive: 0.524
3,YDASSIQYRKAGLPR [GBRB2_HUMAN_441],inactive: 0.605

# Target: SHP2 C-SH2 domain E139D
# Test: as above
# Conditions: peptide library: pTyr-Var
row,Binder,enrichment score
1,HDRGNYVRLNM [RECQL4_Y353],inactive: 1.22
2,ALPGEYIPTVF [RAC1_Y32_F28L],inactive: 1.16
3,ENRKFYKDLKE [PURA_Y156_M157K_YF],inactive: 0.845
4,KVGPGYLGSRG [RET_Y826_G830R],inactive: 0.908
5,IENKPYGMSDP [RET_Y1062_L1061P],inactive: 0.585
6,IWGKKYPTCNS [PTPRZ1_Y53_N48I],inactive: 1.01
7,TGQEDYDRLRP [RAC1_Y64_A59T],inactive: 0.764
8,LLIMEYAKFGS [RET_Y806_V804M_YF],active: 3.44
9,KSIEEYLKLVG [RASAL2_Y381],inactive: 0.742
10,TTPFNYSFIFK [RAB14_Y8_A4T_YF],inactive: 1.18
11,LLILEYAKYGS [RET_Y806_V804L],inactive: 2.92
12,RVQKRYILDNV [RCN1_Y115_F117L],inactive: 0.646
13,VFDHIYTTQSD [RET_Y928_L923V],inactive: 1.08
14,SSTASYFEAPG [RFX2_Y108],inactive: 0.789
15,VEYAKYGSLRG [RET_Y809],inactive: 0.568

# Target: SHP2 C-SH2 domain wild-type
# Test: as above
# Conditions: peptide library: pTyr-Var
row,Binder,enrichment score
1,HDRGNYVRLNM [RECQL4_Y353],inactive: 1.65
2,ALPGEYIPTVF [RAC1_Y32_F28L],inactive: 0.865
3,ENRKFYKDLKE [PURA_Y156_M157K_YF],inactive: 0.511
4,KVGPGYLGSRG [RET_Y826_G830R],inactive: 0.667
5,IENKPYGMSDP [RET_Y1062_L1061P],inactive: 0.577
6,IWGKKYPTCNS [PTPRZ1_Y53_N48I],inactive: 0.993
7,TGQEDYDRLRP [RAC1_Y64_A59T],inactive: 0.477
8,LLIMEYAKFGS [RET_Y806_V804M_YF],active: 3.24
9,KSIEEYLKLVG [RASAL2_Y381],inactive: 0.778
10,TTPFNYSFIFK [RAB14_Y8_A4T_YF],inactive: 2.16
11,LLILEYAKYGS [RET_Y806_V804L],inactive: 2.72
12,RVQKRYILDNV [RCN1_Y115_F117L],inactive: 0.429
13,VFDHIYTTQSD [RET_Y928_L923V],inactive: 0.999
14,SSTASYFEAPG [RFX2_Y108],inactive: 0.717
15,VEYAKYGSLRG [RET_Y809],inactive: 1.28

# Target: SHP2 N-SH2 domain L43F
# Test: as above
# Conditions: peptide library: pTyr-Var
row,Binder,enrichment score
1,HDRGNYVRLNM [RECQL4_Y353],inactive: 1.59
2,ALPGEYIPTVF [RAC1_Y32_F28L],inactive: 1
3,ENRKFYKDLKE [PURA_Y156_M157K_YF],inactive: 0.564
4,KVGPGYLGSRG [RET_Y826_G830R],inactive: 0.809
5,IENKPYGMSDP [RET_Y1062_L1061P],inactive: 0.668
6,IWGKKYPTCNS [PTPRZ1_Y53_N48I],inactive: 0.924
7,TGQEDYDRLRP [RAC1_Y64_A59T],inactive: 0.509
8,LLIMEYAKFGS [RET_Y806_V804M_YF],active: 3.87
9,KSIEEYLKLVG [RASAL2_Y381],inactive: 1.14
10,TTPFNYSFIFK [RAB14_Y8_A4T_YF],inactive: 1.51
11,LLILEYAKYGS [RET_Y806_V804L],inactive: 2.61
12,RVQKRYILDNV [RCN1_Y115_F117L],inactive: 0.526
13,VFDHIYTTQSD [RET_Y928_L923V],inactive: 1.07
14,SSTASYFEAPG [RFX2_Y108],inactive: 0.673
15,VEYAKYGSLRG [RET_Y809],inactive: 0.581

# Target: SHP2 N-SH2 domain T42A
# Test: as above
# Conditions: peptide library: pTyr-Var
row,Binder,enrichment score
1,HDRGNYVRLNM [RECQL4_Y353],active: 4.14
2,ALPGEYIPTVF [RAC1_Y32_F28L],inactive: 0.817
3,ENRKFYKDLKE [PURA_Y156_M157K_YF],inactive: 0.666
4,KVGPGYLGSRG [RET_Y826_G830R],inactive: 0.828
5,IENKPYGMSDP [RET_Y1062_L1061P],inactive: 0.686
6,IWGKKYPTCNS [PTPRZ1_Y53_N48I],inactive: 0.948
7,TGQEDYDRLRP [RAC1_Y64_A59T],inactive: 0.565
8,LLIMEYAKFGS [RET_Y806_V804M_YF],inactive: 2.77
9,KSIEEYLKLVG [RASAL2_Y381],inactive: 1.03
10,TTPFNYSFIFK [RAB14_Y8_A4T_YF],inactive: 1.59
11,LLILEYAKYGS [RET_Y806_V804L],inactive: 2.15
12,RVQKRYILDNV [RCN1_Y115_F117L],inactive: 0.509
13,VFDHIYTTQSD [RET_Y928_L923V],inactive: 0.874
14,SSTASYFEAPG [RFX2_Y108],inactive: 0.852
15,VEYAKYGSLRG [RET_Y809],inactive: 0.475

# Target: SHP2 N-SH2 domain T52S
# Test: as above
# Conditions: peptide library: pTyr-Var
row,Binder,enrichment score
1,HDRGNYVRLNM [RECQL4_Y353],inactive: 1.61
2,ALPGEYIPTVF [RAC1_Y32_F28L],inactive: 0.886
3,ENRKFYKDLKE [PURA_Y156_M157K_YF],inactive: 0.657
4,KVGPGYLGSRG [RET_Y826_G830R],inactive: 0.963
5,IENKPYGMSDP [RET_Y1062_L1061P],inactive: 0.518
6,IWGKKYPTCNS [PTPRZ1_Y53_N48I],inactive: 0.742
7,TGQEDYDRLRP [RAC1_Y64_A59T],inactive: 0.601
8,LLIMEYAKFGS [RET_Y806_V804M_YF],active: 4.58
9,KSIEEYLKLVG [RASAL2_Y381],inactive: 0.96
10,TTPFNYSFIFK [RAB14_Y8_A4T_YF],inactive: 1.17
11,LLILEYAKYGS [RET_Y806_V804L],inactive: 2.61
12,RVQKRYILDNV [RCN1_Y115_F117L],inactive: 0.686
13,VFDHIYTTQSD [RET_Y928_L923V],inactive: 0.974
14,SSTASYFEAPG [RFX2_Y108],inactive: 0.619
15,VEYAKYGSLRG [RET_Y809],inactive: 0.543

# Target: SHP2 N-SH2 domain wild-type
# Test: as above
# Conditions: peptide library: pTyr-Var
row,Binder,enrichment score
1,HDRGNYVRLNM [RECQL4_Y353],inactive: 1.34
2,ALPGEYIPTVF [RAC1_Y32_F28L],inactive: 1.02
3,ENRKFYKDLKE [PURA_Y156_M157K_YF],inactive: 0.733
4,KVGPGYLGSRG [RET_Y826_G830R],inactive: 0.753
5,IENKPYGMSDP [RET_Y1062_L1061P],inactive: 0.681
6,IWGKKYPTCNS [PTPRZ1_Y53_N48I],inactive: 0.921
7,TGQEDYDRLRP [RAC1_Y64_A59T],inactive: 0.616
8,LLIMEYAKFGS [RET_Y806_V804M_YF],active: 4.54
9,KSIEEYLKLVG [RASAL2_Y381],inactive: 0.805
10,TTPFNYSFIFK [RAB14_Y8_A4T_YF],inactive: 1.04
11,LLILEYAKYGS [RET_Y806_V804L],inactive: 2.38
12,RVQKRYILDNV [RCN1_Y115_F117L],inactive: 0.369
13,VFDHIYTTQSD [RET_Y928_L923V],inactive: 1.1
14,SSTASYFEAPG [RFX2_Y108],inactive: 0.588
15,VEYAKYGSLRG [RET_Y809],inactive: 0.62
